# Measurements reported in PubChem BioAssay AID1508642 (National Center for Advancing Translational Sciences (NCATS), 2021).
# In all, about 43,000 compounds went through this assay and about 200 (0.47%) were called active. Roughly 12% stayed inconclusive and do not appear here. Calls follow the shape of the dose curve; as a rule, active = well fitted cell-killing curve with a large enough effect; inconclusive = small, poorly fitted or top-dose-only effect, or effect the other way; inactive = flat fitted curve, though single readings scatter. This is one part of the list.
# Assay: Cell viability qHTS assay in S16 Pmp22-F2sN cells; also: nearly all actives have a fitted effect of over 65% in size
# Conditions: S16 Pmp22-F2sN Schwann cells (luciferase reporters placed in the Pmp22 gene) viability, CellTiter-Glo, 24 h; series mostly up to 57.5 µM; activity change, negative = cytotoxicity: at the top concentration
# Procedure, shortened: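 Seed 500-1,000 S16 Pmp22-F2sN cells per well in phenol-red-free DMEM with 10% heat-inactivated FBS; pin-add 23 nL compound; incubate 24 h at 37C; add CellTiter-Glo, wait 15 min protected from light; read luminescence.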
# % is scaled to controls: 0 for no effect and ±100 for the full control effect; potency is read from the fitted curve at half-maximal effect.
SMILES,"activity change, negative = cytotoxicity",Potency
O=C(NCCc1ccccc1)c1cc(Sc2ccc(F)cc2F)nc2ccccc12,inactive: 6.92%,
Cc1ccccc1CN1CCCN(CC(=O)Nc2c(C)cccc2C)S1(=O)=O,inactive: 10.9%,
COc1cccc(OCc2nc3ccccc3n2CCOc2cccc(C)c2)c1,inactive: -0.63%,
Cc1cccc(CS(=O)(=O)c2ncc(Cl)c(C(=O)NCc3ccccc3)n2)c1,,active: 20 µM
Cc1ccccc1CS(=O)(=O)Cc1ccc(C(=O)NCc2ccc(F)cc2)o1,inactive: -14.6%,
Cc1ccc(C)c(NC(=O)c2cc(=O)c3cc(C)cc(C)c3o2)c1,inactive: 3.8%,
Cc1ccc(NC(=O)Cn2c(=O)ccc3cc(S(=O)(=O)N4CCC(C)CC4)ccc32)cc1Cl,inactive: 10.5%,
COc1cccc(NC(=O)CCNC(=O)Cn2ccc3ccccc3c2=O)c1,inactive: -0.555%,
O=C1CC(c2ccc(Cl)cc2)N=C(NC(=O)c2ccccc2)N1 (stereo not given),inactive: -1.49%,
COCCNc1ncnc2c1c(-c1ccccc1)cn2-c1cccc(Cl)c1,inactive: -0.988%,
CCc1ccc(NCc2cc3cc4c(cc3n(CC(=O)Nc3ccc(F)cc3)c2=O)OCCO4)cc1,inactive: 18%,
Cc1ccc(NC(=O)CSc2nnc(N)s2)c(C)c1,inactive: 1.23%,
COc1ccc(CNC(=O)C2CCN(S(=O)(=O)c3cccc4nonc34)CC2)cc1OC,inactive: 25.6%,
CC(C)C(=O)OCc1cc(=O)n2nc(C3CCCCC3)sc2n1,inactive: 23.8%,
O=C(c1cccs1)N1CCCc2cc(NS(=O)(=O)c3ccc(F)cc3)ccc21,inactive: -1.42%,
COCCCNC(=O)CCc1c(C)nc2cc(-c3ccc(Cl)cc3)nn2c1C,inactive: -7.05%,
O=C(Nc1ccc2nn(-c3ccccc3)nc2c1)c1ccc(-c2cccc(Cl)c2)o1,inactive: -5.04%,
CCOc1ccc(C(=O)N2CCN(Cc3cc(=O)n4nc(-c5ccccc5Cl)sc4n3)CC2)cc1,inactive: 22.5%,
O=C(CSc1nnc(CNC(=O)c2c(F)cccc2Cl)o1)Nc1cccc(F)c1,inactive: 2.77%,
CCOc1ccc(NS(=O)(=O)c2ccc(NC(=O)N3CCCC3)cc2)cc1,inactive: 3.81%,
O=C(c1ccc2c(=O)n(CCc3ccccc3)c(=O)[nH]c2c1)N1CCN(c2ccc(Cl)cc2)CC1,inactive: 0.0608%,
CCS(=O)(=O)N1CCc2cc(C(=O)Nc3cc(Cl)ccc3C)ccc21,inactive: 0.0436%,
Cc1nn2c(-c3cccc(NC(=O)c4ccc(Cl)cc4)c3)nnc2c2ccccc12,inactive: 12.6%,
COc1ccc(CCNC(=O)CCS(=O)(=O)c2ccc3c(c2)oc(=O)n3C)cc1OC,inactive: 5.35%,

SMILES,"activity change, negative = cytotoxicity",Potency
Cc1ccc(N2CCN(C(=O)c3cn(C)c4ccc(S(=O)(=O)N(C)C5CCCCC5)cc4c3=O)CC2C)cc1 (stereo not given),inactive: 2.73%,
CCOC(=O)c1c(C)[nH]c(CCC(=O)Nc2ccccc2C(=O)OC)c1C,inactive: 19.9%,
CC(C)C(=O)Nc1ccc2nc(SCCOc3ccccc3)sc2c1,inactive: -7.72%,
CCn1c(=O)n(CC)c2cc(N3CCCCC3)c(NC(=O)Nc3cc(Cl)ccc3OC)cc21,inactive: -17.3%,
Cc1cccc(CNC(=O)c2ccc(Cn3c(=O)c4cccn4c4cccnc43)cc2)c1,inactive: 5.87%,
O=C(CC1N=C2c3ccccc3N=C(SCc3ccccc3F)N2C1=O)NCc1cccs1 (stereo not given),inactive: -1.52%,
Cc1ccc(NC(=O)C(Cc2ccccc2)NS(=O)(=O)c2cccc3nsnc23)c(C)c1 (stereo not given),inactive: -10.6%,
CC1CCCCN1S(=O)(=O)c1ccc2c(c1)oc(=O)n2CC(=O)Nc1ccc(Cl)cc1 (stereo not given),inactive: 1.79%,
COc1cc(C2CC(=O)Nc3c2c(=O)nc2c(C)cccn32)cc(OC)c1OC (stereo not given),inactive: 7.76%,
COc1cccc(NC(=O)/C(C#N)=C\c2cn(Cc3ccc(Cl)cc3)c3ccccc23)c1,inactive: 4.77%,
CCc1ccc(-c2nn(CC(=O)NC3CCCCC3)c3c2cnc2ccc(OC)cc23)cc1,inactive: 28.6%,
Cc1ccc(Cl)cc1NC(=O)C(=O)NCCc1sc(-c2ccc(F)cc2)nc1C,inactive: 7.96%,
COc1ccc(CC(=O)Nc2sc3c(c2C(=O)Nc2c(C)cccc2C)CCCCC3)cc1,inactive: -4.43%,
COc1ccc(NC(=O)CSC2=Nc3ccccc3C3=NC(CC(=O)NCc4ccc(F)cc4)C(=O)N23)cc1 (stereo not given),inactive: -4.24%,
CCCCc1ccc(C(=O)N/C(=C\c2ccc(C)cc2)C(=O)NC2CCCCC2)cc1,inactive: 10.5%,
Cc1cc(C(F)F)n2nc(C(=O)Nc3ccc(F)c(Cl)c3)nc2n1,inactive: 2.76%,
CCc1nc2ccc(C(=O)N3CCN(c4ccc(Cl)cc4)CC3)cc2nc1CC,inactive: -0.493%,
CCCOc1ccc(C(=O)Nc2c(C(=O)c3ccc(C)cc3)oc3ccccc23)cc1,inactive: 12.5%,
COc1ccc(CNC(=O)Cn2c(=O)oc3cc(S(=O)(=O)N4CCCC4)ccc32)cc1,inactive: -9.98%,
Cc1cccc(S(=O)(=O)c2cn(Cc3ccccc3)c3cc(N4CCCCC4C)c(F)cc3c2=O)c1 (stereo not given),inactive: -6.59%,
Cc1ccc(NC(=O)CN2CCN(C3CCCCC3)C(=O)C2=O)cc1C,inactive: 2.33%,
Cc1ccc2c(c1)sc1nc(=O)n(-c3cccc(Cl)c3)c(=O)n12,inactive: 10.5%,
CN(C(=O)NCc1noc2ccccc12)c1cccc(Cl)c1,inactive: -3.79%,
COc1ccccc1NC(=O)C1=C(C)Nc2nc(SCc3ccccc3Cl)nn2C1c1cccnc1 (stereo not given),inactive: 2.85%,

SMILES,"activity change, negative = cytotoxicity",Potency
COc1ccc(CN2C(=O)c3ccccc3C2C(=O)NC2CCCCCC2)c(OC)c1 (stereo not given),inactive: 0.563%,
O=C(Cn1ncc2c3ccccc3n(Cc3cccc(Cl)c3)c2c1=O)N1CCCCC1,inactive: -28%,
CCOC(=O)C1CCN(C(=O)Cn2nc(CC)n3c(cc4occc43)c2=O)CC1,inactive: 11.1%,
Cc1cc(Cl)ccc1NS(=O)(=O)c1cc2[nH]c(=O)c(=O)[nH]c2cc1C,inactive: 4.99%,
Cc1ccc(-n2c(=O)[nH]c3sc4c(c3c2=O)CCNC4)cc1C,inactive: 1.03%,
CCCCc1nn2c(C)c(-c3ccc(OCC)cc3)nc2s1,inactive: -28.8%,
O=C(COc1ccccc1F)Nc1ccc2nc(SCc3ccccc3)sc2c1,inactive: 16.7%,
CCC(=O)N1CCc2cc(S(=O)(=O)NCCC(=O)Nc3cccc(SC)c3)ccc21,inactive: -16.3%,
COc1ccc2oc(=O)c(-c3nc4ccc(C)cc4[nH]3)cc2c1,inactive: -29.5%,
CCOC(=O)c1cc(-c2ccc(F)cc2)n(CCC(=O)NCc2ccc(C)cc2)c1C,inactive: -10.8%,
Cc1ccc2oc(C(=O)Nc3ccc(S(=O)(=O)Nc4ncccn4)cc3)cc(=O)c2c1,inactive: -12.4%,
CCC(C(=O)Nc1cc(OC)ccc1OC)n1nc(-c2ccccc2)c2c(c1=O)CCCC2 (stereo not given),inactive: -27.2%,
CN(C)S(=O)(=O)N(CC(=O)NCCSc1ccc(Cl)cc1)c1ccccc1,inactive: 15.2%,
Cn1c2ccccc2c2c(C(=O)N3CCN(c4cccc(C(F)(F)F)c4)CC3)cn(C3CCCCC3)c(=O)c21,inactive: -12.8%,
Cc1ccc(-c2cn3nc(N4CCC(C(=O)Nc5ccccc5C)CC4)sc3n2)cc1,inactive: -0.176%,
CCOc1ccccc1CNC(=O)C1CCN(Cc2cc3ccccc3n2Cc2ccccc2)CC1,inactive: -15.5%,
CCCS(=O)(=O)c1nc(S(=O)(=O)c2ccc(C)cc2)c(NC(C)c2ccccc2)s1 (stereo not given),inactive: -0.49%,
Cc1cc(C)c2oc(C(=O)Nc3nc4ccc(Cl)cc4s3)cc(=O)c2c1,inactive: 17.3%,
Cc1cccc(Cn2c(SCc3ccc(C(=O)NCc4ccccc4F)cc3)nc3cccnc32)c1,inactive: -19.2%,
Cc1ccc(-n2ccnc(NCc3cccs3)c2=O)cc1C,inactive: 24.4%,
COc1cccc(NS(=O)(=O)c2ccc3[nH]cc(C(=O)NCCc4ccc(C)cc4)c(=O)c3c2)c1,inactive: -16.4%,
CN1C(C(=O)NC(C)(C)C)=CC(c2ccc3c(c2)OCO3)=NS1(=O)=O,inactive: 1.2%,
COc1cc2nc(NC(=O)c3ccc(S(=O)(=O)N4CCCC4)cc3)sc2cc1OC,inactive: 1.65%,
O=C(COCc1cc(-c2ccc3c(c2)OCO3)on1)N1CCN(c2cccc(C(F)(F)F)c2)CC1,inactive: -28.3%,

SMILES,"activity change, negative = cytotoxicity",Potency
Cc1ccc(C)c(NC2=C(c3ccc(C(F)(F)F)cc3)C(=O)c3ccccc32)c1,inactive: -24.3%,
COc1ccccc1C(=O)NCCc1csc(-c2ccc(C(F)(F)F)cc2)n1,inactive: 9.54%,
COc1cc(NC(=O)Cn2c(=O)n(CC3CCCO3)c(=O)c3cc(OC)c(OC)cc32)cc(OC)c1 (stereo not given),inactive: 19.1%,
CCOCCc1nn2c(=O)cc(COC(=O)c3ccc(NC(=O)c4ccc(F)cc4)cc3)nc2s1,inactive: -6.13%,
CCc1ccc(C2CC(=O)N(c3cccc(C(F)(F)F)c3)C3=C2C(=O)OC3)cc1 (stereo not given),inactive: 5.86%,
COc1ccc2c(CNC3CCC(C)CC3)c(C(=O)O)n(Cc3ccccc3)c2c1 (stereo not given),inactive: 27.7%,
CC(=O)N1CCc2cc(CNC(=O)Nc3ccccc3C(F)(F)F)ccc21,inactive: -14.4%,
COc1ccccc1CNS(=O)(=O)c1cc(-c2cc(C)no2)ccc1C,inactive: -3.15%,
Cc1nn(CCCC(=O)NCCc2ccc(Cl)cc2)c(=O)c2nn(-c3ccccc3)c(C)c12,inactive: -4.56%,
O=C(NCc1cccc(Cl)c1)c1oc(=O)c2ccccc2c1-c1ccccc1,inactive: 1.51%,
COC(=O)c1ccc(NC(=O)c2nn(C)c3c2COc2ccccc2-3)cc1,inactive: 2.53%,
CCOc1ccc(OCC(=O)NCCS(=O)(=O)N2CCN(c3ccc(OC)cc3)CC2)cc1,inactive: -0.823%,
Cc1ccc(NC(=O)Cn2c(=O)n(CCc3ccccc3)c(=O)c3sc4ccccc4c32)cc1C,inactive: -1.49%,
CCn1c(=O)c(C(=O)Nc2cc(OC)c(OC)c(OC)c2)nc2ccccc21,inactive: 11.9%,
COc1ccc(C2CC(=O)c3cc(-c4nc(-c5cccc([N+](=O)[O-])c5)cs4)c(=O)n(-c4ccccc4C)c3C2)cc1 (stereo not given),inactive: 1.53%,
Cc1ccc(-c2cc(NC(=O)COc3c(C)cc(C)cc3C)on2)cc1,inactive: 0.821%,
O=C(NCc1ccccc1F)c1cccc(NC(=O)N2CCSc3ncccc32)c1,inactive: 18.5%,
O=C(COc1ccccc1)NCCc1csc(-c2ccc(F)cc2)n1,inactive: 8.95%,
COc1ccc(CNC(=O)CCc2nc3cccnc3n2Cc2ccc(OC)cc2)cc1,inactive: -1.88%,
CCCCOc1ccc(Cn2c(=O)oc3ccccc32)cc1,inactive: 1.71%,
O=C(Cn1cc(S(=O)(=O)Cc2cccc(Cl)c2)c2ccccc21)Nc1ccc(F)c(Cl)c1,inactive: 10%,
O=C(CCCCn1c(=O)c2ccccc2n(Cc2ccccc2F)c1=O)NCc1ccc2c(c1)OCO2,inactive: 19.9%,
Cc1cc2oc(C(=O)N(Cc3ccc(N(C)C)cc3)CC3CCCO3)c(C)c2cc1C (stereo not given),inactive: 11.4%,
